# Results from the supplement of paper PMC12355420.
# Structures can show the parent of a compound that is named as a salt. The list shows a part of the results. Most values come without repeats; read them as rough.
# System: HeLa VPS33A KO + NLuc-VPS33A R498W
# Assay: relative mutant VPS33A R498W amount (NanoLuc luminescence) vs DMSO (fraction of DMSO); HeLa model of a glycosaminoglycan (GAG) storage disease; KI is knock-in and KO knock-out; SDC1 is syndecan 1; higher = higher mutant VPS33A level
# Details: 50 µM; 24 h
# 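Also: screen of an FDA-approved drug library, NanoLuc luminescence read after lysing the treated cells, taken as a measure of mutant VPS33A protein stability.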
row,SMILES,relative mutant VPS33A R498W amount
1,Cn1ccnc1S [Methimazole],0.895
2,C[C@]12CC[C@@H]3c4ccc(O)cc4CC[C@H]3[C@@H]1CC[C@@H]2O [Estradiol],0.444
3,O=c1n(CCCN2CCN(c3cccc(Cl)c3)CC2)nc2ccccn12 [Trazodone HCl],0.779
4,Cc1cccc(-c2nn3c(c2-c2ccnc4ccc(C(N)=O)cc24)CCC3)n1,0.712
5,C#Cc1cccc(Nc2ncnc3cc(OCCOC)c(OCCOC)cc23)c1 [Erlotinib Hydrochloride],0.484
